Source: the RNAGym collection of RNA variant scans (doi:10.1073/pnas.2313332121)
Variants at the floor of the assay are shown more often than the library holds them.

B1: TPR 5TU (parent)
chain: GGAUCUUCUCGAUCUAACAAAAAAGACAAAUCUGCCACAAAGCUUGAGAGCAUCUUCGGAUGCAGAGGCGGCAGCCUUCGGUGGCGCGAUAGCGCCAACGUUCUCAACUAUGACACGCAAAACGCGUGCUCCGUUGAAUGGAGUUUAUCAUG

Variants of: B1
Test: polymerase ribozyme fitness, log enrichment relative to wild type (log ratio); higher = more active; in vitro selection for triplet polymerase activity
Method in brief: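 A heterodimeric triplet polymerase ribozyme had each of its subunits mutagenized by PCR into a library, which was transcribed. One round of in vitro selection, done in triplicate, annealed each library with a biotinylated primer, its partner subunit and triplets, then incubated it frozen at −7 °C before gel excision of extended constructs, streptavidin-bead capture and RT-PCR. Fitness is the logarithm of genotype enrichment relative to wild-type enrichment, based on Illumina sequencing of inputs and outputs and inverse-variance-weighted replicate averages. A base-2 logarithm is used, and genotypes were kept only with ≥10 input reads and ≥1 read per output.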

| Variant | polymerase ribozyme fitness (log ratio) |
| --- | --- |
| GGAUCUUCUCGAUCUAACAAAAAAGACAAAUCUGCCACAAAGCUUGAGAGCAUCUUCGGAUGCAGAGGCGGCAGCCUUCGGUGGCGCGAUAGCGCAAACGUUCUGAACUAUGACACGCAAAACGCGUGCUCCGUUGAAUGGAGUUUAUCAUG [C96A C105G] | -1.4 |
| GGAUCUUCUCGAUCUAACAAAAAAGACAAAUCUGCCACAAAGCUUGAGAGCAUCUUCGGAUGCAGAGGCGGCAGCCUUCGGUGGCGCGAUAGCGCAAACGUUCUGAACUAUGACACGCAAAACGAGUGCUCCGUUGAAUGGAGUUUAUCAUG [C96A C105G C125A] | -2.29 |
| GGAUCUUCUCGAUCUAACAAAAAAGACAAAUCUGCCACAAAGCUUGAGAGCAUCUUCGGAUGCAGAGGCGGCAGCCUUCGGUGGCGCGAUAGCGCAAACGUUCUUAACUAUGACACGCAAAACGCGUGCUCCGUUGAAUGGAGUUUAUCAUG [C96A C105U] | 0.343 |
| GGAUCUUCUCGAUCUAACAAAAAAGACAAAUCUGCCACAAAGCUUGAGAGCAUCUUCGGAUGCAGAGGCGGCAGCCUUCGGUGGCGCGAUAGCGCAAACGUUCUCAACUAUGACACGUAAAACGCGUGCUCCGUUGAAUGGAGUUUAUCAUG [C96A C118U] | -1.8 |
| GGAUCUUCUCGAUCUAACAAAAAAGACAAAUCUGCCACAAAGCUUGAGAGCAUCUUCGGAUGCAGAGGCGGCAGCCUUCGGUGGCGCGAUAGCGCAAACGUUCUCAACUAUGACACGUAAAACGCGUGCUCCGUUGAAUGGAGUUUACCAUG [C96A C118U U148C] | -2.57 |
| GGAUCUUCUCGAUCUAACAAAAAAGACAAAUCUGCCACAAAGCUUGAGAGCAUCUUCGGAUGCAGAGGCGGCAGCCUUCGGUGGCGCGAUAGCGCAAACGUUCUCAACUAUGACACGCAAAACUCGUGCUCCGUUGAAUGGAGUUUAUCAUG [C96A G124U] | -0.674 |
| GGAUCUUCUCGAUCUAACAAAAAAGACAAAUCUGCCACAAAGCUUGAGAGCAUCUUCGGAUGCAGAGGCGGCAGCCUUCGGUGGCGCGAUAGCGCAAACGUUCUCAACUAUGACACGCAAAACGCGUGCUCCUUUGAAUGGAGUUUAUCAUG [C96A G133U] | -3.9 |
| GGAUCUUCUCGAUCUAACAAAAAAGACAAAUCUGCCACAAAGCUUGAGAGCAUCUUCGGAUGCAGAGGCGGCAGCCUUCGGUGGCGCGAUAGCGCAAACGUUCUCAACUAUGACACGCAAAACGCGUGCUCCGUUGAAUUGAGUUUAUCAUG [C96A G140U] | -3.47 |
| GGAUCUUCUCGAUCUAACAAAAAAGACAAAUCUGCCACAAAGCUUGAGAGCAUCUUCGGAUGCAGAGGCGGCAGCCUUCGGUGGCGCGAUAGCGCAAACGUUCUCAACUAUGACACGCAAAACGCGUGCUCCGUUGAACGGAGUUUAUCAUG [C96A U139C] | -3.61 |
| GGAUCUUCUCGAUCUAACAAAAAAGACAAAUCUGCCACAAAGCUUGAGAGCAUCUUCGGAUGCAGAGGCGGCAGCCUUCGGUGGCGCGAUAGCGCAAACGUUCUCAACUAUGACACGCAAAACGCGUGCUCCGUUGAAUGGAGUUUAACAUG [C96A U148A] | -3.15 |
| GGAUCUUCUCGAUCUAACAAAAAAGACAAAUCUGCCACAAAGCUUGAGAGCAUCUUCGGAUGCAGAGGCGGCAGCCUUCGGUGGCGCGAUAGCGCAAACGUUCUCAACUAUGACACGCAAAACGCGUGCUCCGUUGAAUGGAGUUUAUCACG [C96A U151C] | -3.24 |
| GGAUCUUCUCGAUCUAACAAAAAAGACAAAUCUGCCACAAAGCUUGAGAGCAUCUUCGGAUGCAGAGGCGGCAGCCUUCGGUGGCGCGAUAGCGCAAACGUUCUCAACUAUGACACGCAAAACGCGUGCUCCGUUGAAUGGAGUUUAUCAGG [C96A U151G] | ≤ -4.2 |
| GGAUCUUCUCGAUCUAACAAAAAAGACAAAUCUGCCACAAAGCUUGAGAGCAUCUUCGGAUGCAGAGGCGGCAGCCUUCGGUGGCGCGAUAGCGCGGACGUUCUCAACUAUGACACGCAAAACGCGUGCUCCGUUGAAUGGAUUUUAUCAUG [C96G A97G G143U] | -3.14 |
| GGAUCUUCUCGAUCUAACAAAAAAGACAAAUCUGCCACAAAGCUUGAGAGCAUCUUCGGAUGCAGAGGCGGCAGCCUUCGGUGGCGCGAUAGCGCGAUCGUUCUCAACUAUGACACGCAAAACGCGUGCUCCGUUGAAUGGAGUUUAUCAUG [C96G A98U] | -0.873 |
| GGAUCUUCUCGAUCUAACAAAAAAGACAAAUCUGCCACAAAGCUUGAGAGCAUCUUCGGAUGCAGAGGCGGCAGCCUUCGGUGGCGCGAUAGCGCGAUCGUUCUCAACUAUGACACGCAAAACGCGUGCUCCGUUGAAUGGAGGUUAUCAUG [C96G A98U U144G] | -0.0548 |
| GGAUCUUCUCGAUCUAACAAAAAAGACAAAUCUGCCACAAAGCUUGAGAGCAUCUUCGGAUGCAGAGGCGGCAGCCUUCGGUGGCGCGAUAGCGCGAACGUUCUCAACUGUGACACGCAAAACGCGUGCUCCGUUGAAUGGAGUUUAUCAUG [C96G A110G] | -3.11 |
| GGAUCUUCUCGAUCUAACAAAAAAGACAAAUCUGCCACAAAGCUUGAGAGCAUCUUCGGAUGCAGAGGCGGCAGCCUUCGGUGGCGCGAUAGCGCGAACGUUCUCAACUAUGACGCGCAAAAAGCGUGCUCCGUUGAAUGGAGUUUUUCAUG [C96G A115G C123A A147U] | -0.404 |
| GGAUCUUCUCGAUCUAACAAAAAAGACAAAUCUGCCACAAAGCUUGAGAGCAUCUUCGGAUGCAGAGGCGGCAGCCUUCGGUGGCGCGAUAGCGCGAACGUUCUCAACUAUGACACGCAGAACGCGUGCUCCGUUGAAUGGAGUUUAUCAUG [C96G A120G] | -2 |
| GGAUCUUCUCGAUCUAACAAAAAAGACAAAUCUGCCACAAAGCUUGAGAGCAUCUUCGGAUGCAGAGGCGGCAGCCUUCGGUGGCGCGAUAGCGCGAACGUUCUCAACUAUGACACGCAAUACGCGUGCUCCGUUGACUGGAGUUUAUCAUG [C96G A121U A138C] | ≤ -4.2 |
